Test results from patent publication US20250179210A1, “ANTI-CEACAM5 ANTIBODIES AND CONJUGATES AND USES THEREOF” (Merck Patent GmbH, priority 2022, published 2025).

B1: ADC2 (conjugate)
heavy: EVQLQESGPGLVKPSQTLSLTCTVSDGSVSRGGYYLTWIRQHPGKGLEWIGYIYYSGSTYFNPSLRSRVTMSVDTSKNQFSLKLSSVTAADTAVYYCARGIAVAPFDYWGQGTLVTVSSASTKGPSVFPLAPSSKSTSGGTAALGCLVKDYFPEPVTVSWNSGALTSGVHTFPAVLQSSGLYSLSSVVTVPSSSLGTQTYICNVNHKPSNTKVDKRVEPKSCDKTHTCPPCPAPPVAGPSVFLFPPKPKDTLMISRTPEVTCVVVDVSHEDPEVKFNWYVDGVEVHNAKTKPREEQYNSTYRVVSVLTVLHQDWLNGKEYKCKVSNKALPSSIEKTISKAKGQPREPQVYTLPPSREEMTKNQVSLTCLVKGFYPSDIAVEWESNGQPENNYKTTPPVLDSDGSFFLYSKLTVDKSRWQQGNVFSCSVMHEALHNHYTQKSLSLSPG
light: EIVLTQSPATLSVSPGERATLSCRTSQSVRSNLAWYQQKPGQAPRLLIYAASTRATGIPARFSGSGSGTEFTLTISSLQSEDFAVYYCQQYTNWPFTFGPGTKVDIKRTVAAPSVFIFPPSDEQLKSGTASVVCLLNNFYPREAKVQWKVDNALQSGNSQESVTEQDSKDSTYSLSSTLTLSKADYEKHKVYACEVTHQGLSSPVTKSFNRGEC
B2: ADC mAb1 DM4 (conjugate)
heavy: B1 heavy
light: B1 light

Columns and labels:
ADC stability in serum = format: in vitro ADME; details: up to 96 h
Method: 2 M HEPES solution: 52.1 g HEPES were dissolved in 75 mL MiliQ-water and 15 mL HCl 25%, adjusted to pH 7.55 and added up to 100 mL. This solution was mixed as 15% v/v with serum to obtain a stabilized serum with pH 7.3-7.4. Human serum from Biowest (Lot. no. S15594S4200) was thawed. 100 mL serum were mixed with 15 mL 2 M HEPES buffer. Mouse serum from Biowest (Lot. no. S18169S2160) was thawed. 100 mL serum were mixed with 15 mL 2 M HEPES buffer. Cynomolgus serum was thawed and 8.5 mL serum were mixed with 1.5 mL 2 M HEPES buffer. The pH was measured (7.37) and serum was sterile filtered. 2 mL aliquots were frozen at −20° C.
The prepared serum was thawed at RT. The desired ADC protein concentration was prepared as triplicated with 180 μg/mL for subsequent free payload analytics via LC-MS. After adding the ADCs to the serum, the individual batches were mixed and separated into 20 μL aliquots.
Additionally, one 96 h sample with 20 μL for each ADC was pipetted and was used to for total work up analyses to measure recovery. 0 h samples were directly frozen at −80° C., remaining samples were incubated at 37° C. and 5% CO2 and reactions were stopped at 2/4/6/24/48/72, 96 hours incubation via storage at −80° C.

[1] = tested on: human patient-derived CRC xenograft model COPF217; assay: CRC PDX mouse model COPF217; format: in vivo; details: single i.v. treatment, 10 mg/kg
Method: Anti-tumor efficacy in vivo has been evaluated in the human patient-derived CRC xenograft model COPF217 (Shanghai LideBiotech CO., LTD). COPF217 tumor fragments were transplanted subcutaneously into the right flank of six to eight weeks old immunodeficient female mice (NU-Foxn1nu, Charles River). […] Tumor length (L) and width (W) were measured with calipers and tumor volumes were calculated using the formula L×(W^2)/2.

[2] = tested on: CEACAM5-negative MDA-MB-231 cells in co-culture with CEACAM5-positive SK-CO-1 cells; assay: Bystander assay; format: cell-based, human; details: for bystander effect compared to ADC SAR DM4: co-culture, 1 nM
Method: Cytotoxicity effects of ADCs on antigen-negative cancer cell lines in co-culture with antigen-positive cancer cell lines were measured by bystander assays. One thousand CEACAM5-negative MDA-MB-231 cells were seeded in co-culture experiments with 750 or 3000 CEACAM5-positive SK-CO-1 cells per well. As a control, 1000 MDA-MB-231 cells only were seeded in parallel. Cells were seeded in a total volume of 90 μL in 96-well plates the day before treatment. Test compounds were formulated at 10-fold the final concentration of 1E-9 M in cell culture medium and 10 μL was added to the cells in duplicates. Plates were cultured at 37° C. in a CO2 incubator for six days.
Prior to immunofluorescence staining, medium was removed and cells were treated with 100% methanol (−20° C.) for 30 minutes. After methanol removal and one PBS wash step, cells were treated with 2.5% paraformaldehyde (PFA) with 0.2% Triton X-100 in PBS for 15 minutes at room temperature. After solution removal and one PBS wash step, cells were treated with 1% BSA/0.1% Tween/0.1% sodium azide in PBS for at least one hour at room temperature. Antigen-positive and antigen-negative cells were discriminated by immunofluorescence staining with 10 μg/mL human anti-CEACAM5 (mAb1) primary antibody and 1:2000 dilution of donkey anti-human IgG fluorescently (phycoerythrin) labeled secondary antibody (Jackson ImmunoResearch #709-116-149). Cells were identified by nuclei staining using 1 μg/mL Hoechst 33342 (Life technologies, cat #H3570) dye. Staining was carried out in 1% BSA/0.1% sodium azide PBS solutions for 30 minutes at room temperature. Secondary antibody staining was combined with Hoechst dye staining. Between and after staining steps, cells were washed thrice with PBS.
Plates were imaged with the confocal quantitative image cytometer CQ1 (Yokogawa® Electric Corporation, Tokyo, Japan). Analysis was adapted from the CQ1 software (Yokogawa) template “Nucleus and pseudo-Cell body” and FCS export files were analyzed using FlowJo (BD). Based on staining or absence of staining with fluorescently labeled antibody around the nucleus, antigen-positive and antigen-negative cells were distinguished and quantified. Bar graphs show the number of identified antigen-positive and antigen-negative cells per treatment condition.

MKN-45 = assay: Viability assay (Cell Titer-Glo); format: cell-based, human; details: Table 2; at the highest tested compound concentration
[3] = Payload liberation in human liver lysosomes; format: in vitro ADME; details: human liver lysosomes, pH 5.0
Method: pH was adjusted either to pH 5.0 or pH 4.0 using assay buffer. […] Preparation of MeOH+PIC (1:200): 10 μL PIC III+1990 μL MeOH. The reactions were started upon transferring the Eppendorf tubes to a Thermomix that was preheated to 37° C. Subsequently, 10 μL aliquots were drawn after 0, 1, 2, 4, 24 and 48 hours and mixed with 40 μL PIC III (1:200).

MDA-MB-468 = assay: Viability assay (Cell Titer-Glo); format: cell-based, human; details: Table 2
SNU-16 = assay: Viability assay (Cell Titer-Glo); format: cell-based, human; details: Table 2; at the highest tested compound concentration
SK-CO-1 = assay: Viability assay (Cell Titer-Glo); format: cell-based, human
MDA-MB-231 = assay: Viability assay (Cell Titer-Glo); format: cell-based, human; details: Table 2
LS174T = assay: Viability assay (Cell Titer-Glo); format: cell-based, human; details: Table 2; at the highest tested compound concentration
[4] = at the highest tested compound concentration

Row | Molecule | warhead release in serum (ADC stability in serum; cynomolgus serum) | warhead release in serum (ADC stability in serum; human serum) | anti-tumor effect [1] | impact on body weight [1] | non-specific effect on MDA-MB-231 cells alone (only controls) ([2]; ADC concentration of 1 nM) | bystander effect against CEACAM5-negative MDA-MB-231 cells in the presence of CEACAM5-positive SK-CO-1 ([2]; ADC concentration of 1 nM, six days) | bystander effect compared to ADC SAR DM4 [2] | MKN-45 maximal effect compared to untreated controls (MKN-45) | payload release, of initial total conj. payload [3] | MDA-MB-468 maximal effect compared to untreated controls (MDA-MB-468; [4]) | IC50 (MDA-MB-468; six days, geometric mean, N ≥ 2, CEACAM5 Negative) | SNU-16 maximal effect compared to untreated controls (SNU-16) | SK-CO-1 maximal effect compared to untreated controls (SK-CO-1; Table 2, at the highest tested compound concentration) | MDA-MB-231 maximal effect compared to untreated controls (MDA-MB-231; [4]) | IC50 (MDA-MB-231; six days, geometric mean, N ≥ 3, CEACAM5 Negative) | LS174T maximal effect compared to untreated controls (LS174T) | potency against SK-CO-1 (comparison of the DM4 ADCs) (SK-CO-1; FIG. 26A)
1 | B1 | Only minor warhead release observed | Only minor warhead release observed | significant anti-tumor effect | no significant impact on body weight | no non-specific effect | potent bystander effect | much more potent bystander effect | (−90%) | ~40% | (−97%) | 6.7 nM | (−96%) | (−98%) | (−84%) | 15 nM | (−81%) | –
2 | B2 | – | – | – | – | – | – | more pronounced bystander effect than ADC SAR DM4 | – | – | – | – | – | – | – | – | – | comparable potencies
